These results are taken from the supplement of paper PMC11417369.

Some of the results follow.

For the experiment, the system named is PF3D7_0420300 AP2 domain 1 (GST-tagged). In words: gcPBM binding intensity (ln(normalized median fluorescence intensity)); higher = stronger DNA binding. The method in brief:
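For binding intensity, the highest Masliner-normalised natural-log median intensity across replicate spots of either probe orientation was taken. Protein bound to the array was stained with Alexa488 anti-GST antibody and scanned at 488 nm. The protein, GST-tagged P. falciparum DNA-binding domains from E. coli at about 25 μg on average, had been applied for 1 h to an Agilent 4 × 180k array of primer-extended double-stranded 36-bp intergenic genomic probes and negative controls.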
As for “GAAAATAAAAAATATGAACACACATATATAACAAAA [CACACA_site7975]”, the “gcPBM binding intensity (ln)” value worked out at 9.82. To “TCCTAATATATGTATGCACACACAATATATACATAT [CACACA_site9111]” belongs 9.64.

“AAAATTGATATATGCACACATATATATATTAAATAT [CACACA_site763]”: the “gcPBM binding intensity (ln)” value stood at 9.29.

For the sequence “TTTCATTCTGGTATCACACATTTATTTTCTAGTTTA [CACACA_site4286]”, the “gcPBM binding intensity (ln)” value is 9.63.

As for “AAAAAAAAAAAAAACACACATACACATATATTTTTA [CACACA_site3893]”, the “gcPBM binding intensity (ln)” value was 9.45.

Consider “AAAATATAAATTCATGTGCACATATATATTTTGTTA [GTGCAC_site9782]”, for which the “gcPBM binding intensity (ln)” value is 9.23.

In the case of “AGGAAAAAATCGAGTAGTACACATTTAGAAATATAA [XGTACX_site8019]”, the “gcPBM binding intensity (ln)” value was determined as 9.28. Then “ATATCACATATATATATATATATATATATATATATA [XGTACX_negctrl_site463]”, with 9.

For the sequence “AACAAGGCCCGGTACTGTACATTTTTTCATAACATT [XGTACX_site6134]”, the “gcPBM binding intensity (ln)” value is 9.49. Then “GTATGTATATTTATCTGTACATATTTATGTATTCTT [XGTACX_site2112]”, with 9.54.

In the case of “TATATACATATATACACACACATATATTATATATAT [CACACA_site275]”, the “gcPBM binding intensity (ln)” value was 9.75. To “AATTATACTCACGTTACACACACACTATATATATAT [CACACA_site9375]” belongs 10.2; to “TCAAAATGTTACAAATTATGTTGGCTAAAATTTTAA [TGCATGCA_negctrl_site188]”, 8.92. Regarding “TTGAACCTGATAAATACACACAATATAGATTTTTTT [CACACA_site7091]”, the “gcPBM binding intensity (ln)” value was 9.29.

Consider “ACACATATAAATAAAACATGCATATGTAAATATATA [TGCATGCA_site403]”, for which the “gcPBM binding intensity (ln)” value worked out at 9.56. With “TATAATATAATATTTTGTACATATGATAAAAAAAAA [XGTACX_site6858]”, the “gcPBM binding intensity (ln)” value was found to be 9.13. Regarding “AAATATATCTTCTTTGCACACTTAAAGGGAAGTGAT [CACACA_site343]”, the “gcPBM binding intensity (ln)” value amounted to 9.08. Then “AGATATATTTTTTAAATTTAAAAATTATAAAATTTA [CACACA_negctrl_site533]”, with 8.69. For the sequence “ACAATAATTTCCATCACACATATATTTATATATTAC [CACACA_site6003]”, the “gcPBM binding intensity (ln)” value was 9.45. With “TTGCATCTACATTTATGTACATATCTTATGATAAAT [XGTACX_site2146]”, the “gcPBM binding intensity (ln)” value turned out to be 9.24.

With “ATACATATTCTTATTTGTACTTATTATAAAATGGTC [XGTACX_site6584]”, the “gcPBM binding intensity (ln)” value came to 9.19. To “TAACTGATATATAAAACACACATCATAAAAATATAA [CACACA_site6499]” belongs 9.49. Then “GATAGAAAAAAATAATGTACACACACATATATGTTT [XGTACX_site392]”, with 9.72. Then “TTTCTTTTTTCTGTTATTATTATAAAACGATATTTA [TGCATGCA_negctrl_site167]”, with 9.29; and “TACACATACCCATACACACGCATAGAAACATACGAA [CACACA_site5212]”, with 9.61; and “TATTTTTATTTTAATTGTACTTTTTAATTAATAATA [XGTACX_site8302]”, with 9.05. Turning to “GCTGAAAGGATAAAGGTGCATATTTTTTAAAAAATT [GTGCAC_site9487]”, the “gcPBM binding intensity (ln)” value was 9.

As to “AATATTTTATATGTAGTGCATTACTATAGGATTTAT [GTGCAC_site9424]”, the “gcPBM binding intensity (ln)” value stood at 9.18.

For “TTTTTTTTTTTTATATGTACTAATAATCTTTTTTTT [XGTACX_site3552]”, the “gcPBM binding intensity (ln)” value amounted to 9.14. Regarding “TGCTTATATCTTATAATATTTATACATCATAATAAG [CACACA_negctrl_site629]”, the “gcPBM binding intensity (ln)” value came to 9.17. To “TGTGTCAAATAATTAATGTCATATATATTTTGTATA [CACACA_negctrl_site1479]” belongs 9.2. To “ACAAAATAAACGGCTGCACACAAGAAGCACAATATT [CACACA_site3690]” belongs 9.99; to “GCATATAAAATAAATCGTACATGTAAAACATAATTA [XGTACX_site7077]”, 9.2. To “TTTCAATAATAAAAAACACACACAAAAAAAAATAAT [CACACA_site8905]” belongs 10.1; to “AAAAATATAAACACCAGTACACAAACCTATAATGGA [XGTACX_site3846]”, 9.84. With “AAAGTAAATTTAAGCACACACAACGAATTTTTATAC [CACACA_site1959]”, the “gcPBM binding intensity (ln)” value is 9.94.

For “AATATATGGTTTCATGATATTAAATACAATTTAATG [CACACA_negctrl_site1503]”, the “gcPBM binding intensity (ln)” value worked out at 9.03. Then “ATATATATATGTATATGTACTTATATTATTGTTTGT [XGTACX_site1466]”, with 9.44; and “CTATAATTATGATGAAGTACATATGAGTTCAAAAAA [XGTACX_site3070]”, with 9.15; and “ACATAATGCTAGACACGTACGTACATCCGTGAGGTT [XGTACX_site4156]”, with 9.38. Then “TTATTATTATATTCTACATGCAGTTTGTGTAGAACA [TGCATGCA_site455]”, with 9.15; and TGAACTCAACAAAGGGTGCATAACAAAAATAGACGT, with 9.7. Then “GTAAAAGAACGGCATGCATGAAAAATATTACACATG [TGCATGCA_site143]”, with 9.49; and “TATATATGTATATATTTTATAAGTATGCAAGAAAAT [TGCATGCA_negctrl_site486]”, with 9.36; and “ATATTGGAATAAATTTGTACATATATATATTATTCA [XGTACX_site916]”, with 9.24. With “TGTACGAGTCGTAGAGTGCAGTCTGGAGAAGAGTAC [GTGCAC_site9684]”, the “gcPBM binding intensity (ln)” value was 9.23. Consider “AAAATTTATAAAAGCACACAAAATAAAAAAAAATGA [CACACA_site1491]”, for which the “gcPBM binding intensity (ln)” value is 9.55. To “TTATAATATGTATACACACACATATATAAATATATA [CACACA_site2326]” belongs 9.51; to “TTTTGTTATATACAATAGATCAGAAGAAATGAAGTT [CACACA_negctrl_site1579]”, 9.27; to “CTTACGTATTAAGTGTGTCCGTAGTGTTCATAGTTC [XGTACX_site8913]”, 9.34. Then “CAATGTTAACATATTACACACATATGTATATAGAAT [CACACA_site2732]”, with 9.67; and “TATATATCAAGACACACACACATATATTTATTTATA [CACACA_site7733]”, with 9.94. To “GATAATTTATTTTTTCGTACACAAAATATAATATAT [XGTACX_site1470]” belongs 9.17; to “TCGTGAGAAAATATTACACACATTTACTATAGTATC [CACACA_site3444]”, 9.54. For “TTTTTTAAAGATTACTCAAAAAAATAAAAAAATAAA [GTGCAC_negctrl_site222]”, the “gcPBM binding intensity (ln)” value worked out at 8.71. To “TTTTTTTTTTTTTTTTGATACATTAACCTACAATGG [GTGCAC_negctrl_site625]” belongs 8.46; to “TGAGTTCAACAAAGACGTACAAAACCAAAAATATAA [XGTACX_site8931]”, 9.44; to “AAAAAAAAAGAAAAATGTACATACATAAATATATAT [XGTACX_site5664]”, 9.22.

With “ATTATAAACCATAATTAACACACAAAATAAGTTACA [CACACA_site9057]”, the “gcPBM binding intensity (ln)” value was 9.75. To “AAAAAAAAAAAAAAAAGTACACAAATAGATTTATAT [XGTACX_site3727]” belongs 9.22; to “TCCTTTCAACCATATATAATGACATGTACTCAAAAA [GTGCAC_negctrl_site417]”, 9.

As to “CATCCATATAAAATATGTACATATATATATATATAT [XGTACX_site5859]”, the “gcPBM binding intensity (ln)” value amounted to 9.29.

Consider “TATTTTAGTAAAGGTGGTACTTTTAAGTTCATGTAT [XGTACX_site1854]”, for which the “gcPBM binding intensity (ln)” value amounted to 9.17. Take “TAAAATAAAAAGTTTACACACATATATAATTTTAAT [CACACA_site662]”: the “gcPBM binding intensity (ln)” value stood at 9.36. Then “AACCATTTTAAATATGCACACAGATGCACTAACACA [CACACA_site8565]”, with 9.46; and “GAATTATATAATTAAAGTACATTGTTTATATAATCA [XGTACX_site7246]”, with 9.05; and “GAAAGAAATAAAGGTGGTACATAAATAAAAACTAAG [XGTACX_site4826]”, with 9.36. For “AAATTCCACGGACACACACACATATAAATAAATAAA [CACACA_site4811]”, the “gcPBM binding intensity (ln)” value turned out to be 9.98. To “TGTAGTCTGGAGAAAAGTACATAGTATCTGGTAGCT [XGTACX_site2031]” belongs 9.32; to “TTTACACGTACGTGTACACACAAAAATATGTTTTTA [CACACA_site995]”, 9.3. Then “ATTTATATGGTTTGCACACATAACAACTATGGTTAT [CACACA_site3632]”, with 9.65; and “AACATAAAAAAAATATGTACATATATAATATATATA [XGTACX_site3764]”, with 9.29. With “AAAAATAAAAAAAGCACACACATATAAATAAATATA [CACACA_site6968]”, the “gcPBM binding intensity (ln)” value was 9.82. To “TAATTTTTCTTTTATTAACACACATATAAATAAATA [CACACA_site8935]” belongs 9.2; to “CCCAATAATTAAACAACACACATATTTATAGGTAAT [CACACA_site7445]”, 9.7. As for “TATATGACAAGATAAAGTACAAATTTGTATATATAT [XGTACX_site3027]”, the “gcPBM binding intensity (ln)” value turned out to be 9.47. Regarding “ATATATTTATATATTACACACAATATTGTAGACATA [CACACA_site4669]”, the “gcPBM binding intensity (ln)” value came to 9.51. Then “ATATATATACTGTGTACACAAATATATATTATATAT [CACACA_site6104]”, with 9.35; and “AAATTTGGATGACTCAATAAATTATAATATATATAT [CACACA_negctrl_site298]”, with 9.03; and “ATATTCTTTATATGCATACACACCTAATATAGGGAC [CACACA_site1533]”, with 9.4. Then “TTCAATTTTTTAAAGCGTACATATAAAAGTTATATG [XGTACX_site731]”, with 9.03; and “AATCATTTGTTATAAGTCTAAAATTATTAGAATATT [XGTACX_negctrl_site151]”, with 9.05. Take “ATTATTACATATAATGCATGTGCATATATTTTTATA [TGCATGCA_site701]”: the “gcPBM binding intensity (ln)” value was 9.28. Then “AAAAAAAATTTCTCAAGTACACAATTTTTTTTTGTT [XGTACX_site5874]”, with 8.95; and “TTTTTTTAAATATATAAGATAAATTTATAAATAAAT [XGTACX_negctrl_site282]”, with 8.63; and “TTATAATAAAAAAATTCCTAAGTCCGTATATATTAT [CACACA_negctrl_site1698]”, with 9.02.

In the case of “TTTTATTTTTATAACAGTACATAAGTAATTGTTCAA [XGTACX_site7574]”, the “gcPBM binding intensity (ln)” value was 8.92. For the sequence “TTTTATCATCACATTTGTCAAAAAAAAAAAAAAAAA [CACACA_negctrl_site1296]”, the “gcPBM binding intensity (ln)” value came out at 8.52.
